From ChEMBL document CHEMBL3885881, “DrugMatrix”
Not every entry of the source has a single result; some have several. The other results are left out here. There may be further records. The values listed for one entry are repeated measurements (runs, samples, wells, individuals or studies). What stands in brackets tells the records apart. A, B and so on number the origins entry by entry.

How the values were obtained:
Rattus norvegicus [1] = species: Rattus norvegicus; format: toxicity, organism-based, Sprague-Dawley; settings: in vivo, sc, 0 mg/kg, 24 h, vehicle control, tissue Blood, route mini-PUMP - SUBCUTANEOUS, dose level Control, time 1 day, vehicle 100 % SALINE
Rattus norvegicus [2] = species: Rattus norvegicus; test: DrugMatrix - Regimen: Daily Repeat; format: toxicity, organism-based, Sprague-Dawley; design: regimen Daily Repeat, gender Male, age 6-8 weeks; settings: in vivo, 0 mg/kg, dose level Control
[3] = sc, 72 h, tissue Blood, route mini-PUMP - SUBCUTANEOUS, time 3 day, vehicle 100 % SALINE
[4] = sc, 120 h, tissue Blood, route mini-PUMP - SUBCUTANEOUS, time 5 day, vehicle 100 % SALINE
[5] = po, 72 h, tissue Blood, route oral GAVAGE, time 3 day, vehicle 100 % WATER
[6] = po, 120 h, tissue Blood, route oral GAVAGE, time 5 day, vehicle 100 % WATER

Structure (SMILES) | ABSOLUTE BASOPHIL (Rattus norvegicus [1]) | ABSOLUTE EOSINOPHIL (Rattus norvegicus [1]) | ABSOLUTE LYMPHOCYTE (Rattus norvegicus [1]) | ABSOLUTE MONOCYTE (Rattus norvegicus [1]) | ABSOLUTE BASOPHIL (Rattus norvegicus [2]; [3]) | ABSOLUTE EOSINOPHIL (Rattus norvegicus [2]; [3]) | ABSOLUTE LYMPHOCYTE (Rattus norvegicus [2]; [3]) | ABSOLUTE BASOPHIL (Rattus norvegicus [2]; [4]) | ABSOLUTE EOSINOPHIL (Rattus norvegicus [2]; [4]) | ABSOLUTE LYMPHOCYTE (Rattus norvegicus [2]; [4]) | ABSOLUTE MONOCYTE (Rattus norvegicus [2]; [4]) | ABSOLUTE EOSINOPHIL (Rattus norvegicus [2]; [5]) | ABSOLUTE MONOCYTE (Rattus norvegicus [2]; [5]) | ABSOLUTE EOSINOPHIL (Rattus norvegicus [2]; [6]) | NUCLEATED RED BLOOD CELLS (Rattus norvegicus [2]; [6]) | LACTATE DEHYDROGENASE (Rattus norvegicus [2]; po, 120 h, tissue Plasma, route oral GAVAGE, time 5 day, vehicle 100 % WATER)
CC[C@H](C)[C@H](NC(=O)[C@H](Cc1ccc(O)cc1)NC(=O)[C@@H](NC(=O)[C@H](CCCNC(=N)N)NC(=O)[C@@H](N)CC(=O)O)C(C)C)C(=O)N[C@@H](Cc1cnc[nH]1)C(=O)N1CCC[C@H]1C(=O)N[C@@H](Cc1ccccc1)C(=O)O [ANGIOTENSIN II] | 0.0533 CELLS/uL [study A] and 0 CELLS/uL [study B] | 0.0333 CELLS/uL [study A] and 26.17 CELLS/uL [study B] | 8.34 CELLS/uL [study A] and 10985.83 CELLS/uL [study B] | 0.3 CELLS/uL [study A] and 234.5 CELLS/uL [study B] | 0.0333 CELLS/uL [study A] and 0 CELLS/uL [study B] | 0.0533 CELLS/uL [study A] and 77.17 CELLS/uL [study B] | 9.92 CELLS/uL [study A] and 14293.83 CELLS/uL [study B] | 0.0233 CELLS/uL [study A] and 0 CELLS/uL [study B] | 0.0367 CELLS/uL [study A] and 0 CELLS/uL [study B] | 8.92 CELLS/uL [study A] and 14257.33 CELLS/uL [study B] | 0.24 CELLS/uL [study A] and 326 CELLS/uL [study B] | – | – | – | – | –
COc1ccc2c(c1)c(CC(=O)O)c(C)n2C(=O)c1ccc(Cl)cc1 [INDOMETHACIN] | – | – | – | – | – | – | – | – | – | – | – | 0 CELLS/uL [study A] and 91.5 CELLS/uL [study B] | – | – | – | –
CCCC(CCC)C(=O)O [VALPROIC ACID] | – | – | – | – | – | – | – | – | – | – | – | 108.67 CELLS/uL [study A] and 33.67 CELLS/uL [study B] | 216.67 CELLS/uL [study A] and 72.17 CELLS/uL [study B] | 0 CELLS/uL [study A] and 48.67 CELLS/uL [study B] | 0 /100WBC [study A] and 0.33 /100WBC [study B] | 58 u/L [study A] and 180 u/L [study B]
